# Reference: the supplement of paper PMC8291772
# ± gives the standard error. The list shows a part of the results.
# Biological target: terminal deoxynucleotidyl transferase (calf thymus) (UniProt P06526)
# Test: TdT poly-dT extension signal (Cy3 hybridisation fluorescence, uncapped minus capped) (fluorescence a.u.); higher = more efficient initiation of TdT extension
# Settings: initiator chemistry: 2'-O-methyl-RNA, free 3'-OH (5'-tethered via HEG linker)
# Method in brief: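 On glass, photolithographic in situ synthesis produced mono- to pentamer initiators on a hexaethylene glycol linker, each in uncapped and DMTr-dT-capped replicates. These were extended with 0.2 u/μL calf thymus TdT, 100 μM dTTP and 0.25 mM CoCl2 in TdT buffer (37 °C, 120 min), then probed with Cy3-labelled rA18 at 4 °C and scanned at 532 nm. The extension signal equals mean uncapped minus mean capped (background) fluorescence.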
# UniProt P06526, sequence (P06526 whole entry): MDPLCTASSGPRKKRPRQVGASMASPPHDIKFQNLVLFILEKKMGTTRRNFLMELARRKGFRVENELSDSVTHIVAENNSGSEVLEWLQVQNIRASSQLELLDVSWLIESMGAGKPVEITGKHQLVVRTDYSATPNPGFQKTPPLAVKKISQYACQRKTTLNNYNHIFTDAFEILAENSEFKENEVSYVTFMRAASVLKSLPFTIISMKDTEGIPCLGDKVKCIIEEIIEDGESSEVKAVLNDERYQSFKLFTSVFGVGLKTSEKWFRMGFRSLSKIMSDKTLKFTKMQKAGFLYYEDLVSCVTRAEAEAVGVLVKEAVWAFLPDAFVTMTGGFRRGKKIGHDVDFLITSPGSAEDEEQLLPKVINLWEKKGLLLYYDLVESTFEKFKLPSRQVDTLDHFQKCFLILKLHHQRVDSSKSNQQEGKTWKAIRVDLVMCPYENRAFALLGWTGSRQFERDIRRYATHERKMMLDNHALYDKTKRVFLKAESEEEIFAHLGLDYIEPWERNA
row,Sequence,TdT poly-dT extension signal
1,AUGGU,350 ± 22
2,GUAAG,384 ± 44
3,UAGU,371 ± 23
4,AUGG,234 ± 16
5,AGCAG,367 ± 45
6,ACGGA,530 ± 42
7,UUUUG,223 ± 23
8,ACGGG,293 ± 26
9,UUAGU,397 ± 31
10,GCAUA,576 ± 50
11,GGCA,358 ± 25
12,AGAAC,740 ± 50
13,CGUCU,274 ± 12
14,CAGUC,521 ± 42
15,UUCU,214 ± 22
16,AGUUU,220 ± 20
17,GGAA,722 ± 48
18,AAAU,568 ± 46
19,CUGUU,246 ± 15
20,CCAUG,257 ± 42
21,CCGCU,380 ± 47
22,AGUG,231 ± 23
23,UAAA,764 ± 51
24,CUAGA,687 ± 74
25,GAGUU,316 ± 36
26,GUUCG,182 ± 20
27,GGUGA,618 ± 42
28,AGUGU,415 ± 56
29,UUAAC,532 ± 28
